Tested on: dengue virus type-2 New Guinea C strain (DENV2 NGC)
Assay: Inhibitory effect on dengue virus type-2 replication in Vero cells (progeny virus titer by plaque assay)
Assay type: cell-based
Settings: for inhibitory effect on dengue virus replication (titer of progeny viruses): 5-ALA 1 mM, SFC 0.25 mM

Q: Which “inhibitory effect on dengue virus replication on Day 8” value (0.2 mM, continuous treatment, Day 8, FIG. 6) does the source give for `Cl.NCC(=O)CCC(=O)O` [5-ALA, 5-aminolevulinic acid hydrochloride] here?
A: decreased

Q: What about the “inhibitory effect on dengue virus replication” value (0.2 mM, treatment for 2 days after infection (Day 2 to end of Day 4), FIG. 9) of the same molecule?
A: exhibited

Q: What about the “inhibitory effect on dengue virus replication” value (0.2 mM, treatment for 4 days after infection (Day 2 to end of Day 6), FIG. 8) of the same molecule?
A: exhibited

Q: And the “inhibitory effect on dengue virus replication” value (0.2 mM, treatment for 7 days after infection (Day 2 to end of Day 8), FIG. 6)?
A: exhibited the inhibitory effect on the dengue virus replication which increased up to Day 7

Q: And the “inhibitory effect on dengue virus replication, 5-ALA compared with low dose lucidone” value (5-ALA 0.2 mM vs lucidone 10 μM and 2.5 μM, 7 days after infection, FIG. 19)?
A: stronger inhibitory effect on the dengue virus replication than 10 μM and 2.5 μM of lucidone

Q: What about the “inhibitory effect on dengue virus replication compared with ribavirin” value (5-ALA 0.2 mM vs ribavirin 300 μM, 7 days after infection, FIG. 6) of the same molecule?
A: stronger than the effect of ribavirin (300 μM)

Q: And the “inhibitory effect on dengue virus replication, treatment for 4 days and 2 days compared with 7 days” value (FIG. 6, FIG. 8, FIG. 9)?
A: less inhibitory effect

Q: What about the “inhibitory effect on dengue virus replication when the agent was removed from the culture solution” value (after removal of the agent) of the same molecule?
A: lost with the lapse of time

Q: What about the “dose-dependent inhibitory effect on dengue virus replication” value (treatment after infection for 1 day (Day 2), 0.05 mM to 1 mM, FIG. 4) of the same molecule?
A: exhibited the dose-dependent inhibitory effect

Q: What about the “inhibitory effect on dengue virus replication (titer of progeny viruses)” value (shortened to “inhibitory effect … (titer of progeny viruses)”) (treatment before infection, FIG. 1) of the same molecule?
A: not observed

Q: And the “inhibitory effect … (titer of progeny viruses)” value (treatment concurrently with infection for 1 day (Day 1), FIG. 2)?
A: exhibited the inhibitory effect

Q: And the “inhibitory effect … (titer of progeny viruses)” value (treatment from one day after infection for 1 day (Day 2), FIG. 3)?
A: exhibited the inhibitory effect

Q: For `COC1=CC(=O)C(=C(O)/C=C/c2ccccc2)C1=O` [lucidone, reference compound], which “inhibitory effect on dengue virus replication, lucidone compared with 5-ALA” value (lucidone 40 μM vs 5-ALA 0.2 mM, 7 days after infection, FIG. 16) is on record?
A: stronger inhibitory effect on the dengue virus replication than 0.2 mM 5-ALA

Q: With `NC(=O)c1ncn([C@@H]2O[C@H](CO)[C@@H](O)[C@H]2O)n1` [ribavirin, reference compound] as the molecule, how does the “inhibitory effect on dengue virus replication under continuous treatment” value (ribavirin 300 μM, 7 days after infection, FIG. 6) read?
A: reduction in the inhibitory effect
